{"source": "the supplement of paper PMC8728848", "binders": {"B1": {"name": "BDCA-2 (Homo sapiens), Q8WTT0 (protein)", "chain": "MVPEEEPQDREKGLWWFQLKVWSMAVVSILLLSVCFTVSSVVPHNFMYSKTVKRLSKLREYQQYHPSLTCVMEGKDIEDWSCCPTPWTSFQSSCYFISTGMQSWTKSQKNCSVMGADLVVINTREEQDFIIQNLKRNSSYFLGLSDPGGRRHWQWVDQTPYNENVTFWHSGEPNNLDERCAIINFRSSEEWGWNDIHCHVPQKSICKMKKIYI"}}, "experiment_in_all_cases": "glycan array binding signal (z-score within array); higher = stronger binding", "conditions_in_all_cases": "glycan notation: IUPAC condensed, linker removed", "key": {"[1]": {"target": "Gal(b1-4)GlcNAc(b1-6)GalNAc", "how_it_was_run": "(§1)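 Glycan array data came from 3228 arrays in the Consortium for Functional Glycomics database, and only arrays with an available protein sequence were kept. Glycan names were put into IUPAC-condensed notation, and columns mapping to the same glycan were averaged. The binding signal is a within-array Z-score, averaged across arrays of one protein sequence run at different concentrations or buffers and across linkers. A negative Z-score can be read as non-binding.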"}, "[2]": {"target": "Gal(b1-4)GlcNAc(b1-6)[Gal(b1-3)]GalNAc", "how_it_was_run": "as §1"}, "[3]": {"target": "Gal(b1-4)GlcNAc(b1-6)[Gal(b1-4)GlcNAc(b1-3)]GalNAc", "how_it_was_run": "as §1"}, "Gal(b1-4)GlcNAc6P": {"target": "Gal(b1-4)GlcNAc6P", "how_it_was_run": "as §1"}, "Gal(b1-6)Gal": {"target": "Gal(b1-6)Gal", "how_it_was_run": "as §1"}, "Gal3S(b1-3)GalNAc": {"target": "Gal3S(b1-3)GalNAc", "how_it_was_run": "as §1"}, "Gal3S(b1-3)GlcNAc": {"target": "Gal3S(b1-3)GlcNAc", "how_it_was_run": "as §1"}, "[4]": {"target": "Gal3S(b1-3)[Fuc(a1-4)]GlcNAc", "how_it_was_run": "as §1"}, "Gal3S(b1-4)Glc": {"target": "Gal3S(b1-4)Glc", "how_it_was_run": "as §1"}, "Gal3S(b1-4)Glc6S": {"target": "Gal3S(b1-4)Glc6S", "how_it_was_run": "as §1"}, "Gal3S(b1-4)GlcNAc": {"target": "Gal3S(b1-4)GlcNAc", "how_it_was_run": "as §1"}, "Gal3S(b1-4)GlcNAc6S": {"target": "Gal3S(b1-4)GlcNAc6S", "how_it_was_run": "as §1"}, "[5]": {"target": "Gal3S(b1-4)[Fuc(a1-3)]Glc6S", "how_it_was_run": "as §1"}, "[6]": {"target": "Gal3S(b1-4)[Fuc(a1-3)]GlcNAc", "how_it_was_run": "as §1"}, "[7]": {"target": "Gal3S(b1-4)[Fuc(a1-3)]GlcNAc6S", "how_it_was_run": "as §1"}, "Gal3S4S(b1-4)GlcNAc": {"target": "Gal3S4S(b1-4)GlcNAc", "how_it_was_run": "as §1"}, "Gal3S6S(b1-4)GlcNAc": {"target": "Gal3S6S(b1-4)GlcNAc", "how_it_was_run": "as §1"}, "Gal3S6S(b1-4)GlcNAc6S": {"target": "Gal3S6S(b1-4)GlcNAc6S", "how_it_was_run": "as §1"}, "Gal4S(b1-4)GlcNAc": {"target": "Gal4S(b1-4)GlcNAc", "how_it_was_run": "as §1"}, "Gal4S6S(b1-4)GlcNAc": {"target": "Gal4S6S(b1-4)GlcNAc", "how_it_was_run": "as §1"}, "Gal6P(b1-4)GlcNAc": {"target": "Gal6P(b1-4)GlcNAc", "how_it_was_run": "as §1"}, "Gal6S(b1-3)GlcNAc": {"target": "Gal6S(b1-3)GlcNAc", "how_it_was_run": "as §1"}, "Gal6S(b1-3)GlcNAc6S": {"target": "Gal6S(b1-3)GlcNAc6S", "how_it_was_run": "as §1"}, "Gal6S(b1-4)Glc": {"target": "Gal6S(b1-4)Glc", "how_it_was_run": "as §1"}, "Gal6S(b1-4)Glc6S": {"target": "Gal6S(b1-4)Glc6S", "how_it_was_run": "as §1"}, "Gal6S(b1-4)GlcNAc": {"target": "Gal6S(b1-4)GlcNAc", "how_it_was_run": "as §1"}, "Gal6S(b1-4)GlcNAc6S": {"target": "Gal6S(b1-4)GlcNAc6S", "how_it_was_run": "as §1"}, "GalNAc(a1-3)Gal": {"target": "GalNAc(a1-3)Gal", "how_it_was_run": "as §1"}, "GalNAc(a1-3)GalNAc": {"target": "GalNAc(a1-3)GalNAc", "how_it_was_run": "as §1"}, "[8]": {"target": "GalNAc(a1-3)GalNAc(b1-3)Gal(a1-4)Gal(b1-4)Glc", "how_it_was_run": "as §1"}, "[9]": {"target": "GalNAc(a1-3)GalNAc(b1-3)Gal(a1-4)Gal(b1-4)GlcNAc", "how_it_was_run": "as §1"}, "GalNAc(b1-3)Gal": {"target": "GalNAc(b1-3)Gal", "how_it_was_run": "as §1"}, "[10]": {"target": "GalNAc(b1-3)Gal(a1-4)Gal(b1-4)GlcNAc", "how_it_was_run": "as §1"}, "[11]": {"target": "GalNAc(b1-3)Gal(a1-4)Gal(b1-4)GlcNAc(b1-3)Gal(b1-4)Glc", "how_it_was_run": "as §1"}, "[12]": {"target": "GalNAc(b1-3)Gal(a1-6)Gal(b1-4)Glc", "how_it_was_run": "as §1"}, "GalNAc(b1-3)GalNAc": {"target": "GalNAc(b1-3)GalNAc", "how_it_was_run": "as §1"}, "GalNAc(b1-3)GlcNAc": {"target": "GalNAc(b1-3)GlcNAc", "how_it_was_run": "as §1"}, "GalNAc(b1-4)Gal(b1-4)Glc": {"target": "GalNAc(b1-4)Gal(b1-4)Glc", "how_it_was_run": "as §1"}, "GalNAc(b1-4)GlcNAc": {"target": "GalNAc(b1-4)GlcNAc", "how_it_was_run": "as §1"}, "[13]": {"target": "GalNAc(b1-4)GlcNAc(b1-2)Man", "how_it_was_run": "as §1"}, "[14]": {"target": "GalNAc(b1-4)GlcNAc(b1-2)Man(a1-3)[GalNAc(b1-4)GlcNAc(b1-2)Man(a1-6)]Man(b1-4)GlcNAc(b1-4)GlcNAc", "how_it_was_run": "as §1"}, "[15]": {"target": "GalNAc(b1-4)GlcNAc(b1-3)GalNAc(b1-4)GlcNAc", "how_it_was_run": "as §1"}, "GalNAc(b1-4)GlcNAc6S": {"target": "GalNAc(b1-4)GlcNAc6S", "how_it_was_run": "as §1"}, "GalNAc(b1-6)GalNAc": {"target": "GalNAc(b1-6)GalNAc", "how_it_was_run": "as §1"}, "GalNAc3S(b1-4)GlcNAc": {"target": "GalNAc3S(b1-4)GlcNAc", "how_it_was_run": "as §1"}}, "note": "This is one part of the list.", "data": [{"binder": "B1", "values": [{"measurement": "glycan array binding signal (z-score)", "setting": "[1]", "value": -0.179}, {"measurement": "glycan array binding signal (z-score)", "setting": "[2]", "value": -0.164}, {"measurement": "glycan array binding signal (z-score)", "setting": "[3]", "value": -0.166}, {"measurement": "glycan array binding signal (z-score)", "setting": "Gal(b1-4)GlcNAc6P", "value": -0.139}, {"measurement": "glycan array binding signal (z-score)", "setting": "Gal(b1-6)Gal", "value": -0.12}, {"measurement": "glycan array binding signal (z-score)", "setting": "Gal3S(b1-3)GalNAc", "value": -0.238}, {"measurement": "glycan array binding signal (z-score)", "setting": "Gal3S(b1-3)GlcNAc", "value": -0.137}, {"measurement": "glycan array binding signal (z-score)", "setting": "[4]", "value": -0.107}, {"measurement": "glycan array binding signal (z-score)", "setting": "Gal3S(b1-4)Glc", "value": -0.163}, {"measurement": "glycan array binding signal (z-score)", "setting": "Gal3S(b1-4)Glc6S", "value": -0.142}, {"measurement": "glycan array binding signal (z-score)", "setting": "Gal3S(b1-4)GlcNAc", "value": -0.136}, {"measurement": "glycan array binding signal (z-score)", "setting": "Gal3S(b1-4)GlcNAc6S", "value": 0.385}, {"measurement": "glycan array binding signal (z-score)", "setting": "[5]", "value": -0.133}, {"measurement": "glycan array binding signal (z-score)", "setting": "[6]", "value": -0.167}, {"measurement": "glycan array binding signal (z-score)", "setting": "[7]", "value": -0.172}, {"measurement": "glycan array binding signal (z-score)", "setting": "Gal3S4S(b1-4)GlcNAc", "value": -0.193}, {"measurement": "glycan array binding signal (z-score)", "setting": "Gal3S6S(b1-4)GlcNAc", "value": 0.209}, {"measurement": "glycan array binding signal (z-score)", "setting": "Gal3S6S(b1-4)GlcNAc6S", "value": 0.611}, {"measurement": "glycan array binding signal (z-score)", "setting": "Gal4S(b1-4)GlcNAc", "value": -0.022}, {"measurement": "glycan array binding signal (z-score)", "setting": "Gal4S6S(b1-4)GlcNAc", "value": 0.293}, {"measurement": "glycan array binding signal (z-score)", "setting": "Gal6P(b1-4)GlcNAc", "value": -0.088}, {"measurement": "glycan array binding signal (z-score)", "setting": "Gal6S(b1-3)GlcNAc", "value": -0.155}, {"measurement": "glycan array binding signal (z-score)", "setting": "Gal6S(b1-3)GlcNAc6S", "value": -0.179}, {"measurement": "glycan array binding signal (z-score)", "setting": "Gal6S(b1-4)Glc", "value": -0.02}, {"measurement": "glycan array binding signal (z-score)", "setting": "Gal6S(b1-4)Glc6S", "value": 0.188}, {"measurement": "glycan array binding signal (z-score)", "setting": "Gal6S(b1-4)GlcNAc", "value": 0.437}, {"measurement": "glycan array binding signal (z-score)", "setting": "Gal6S(b1-4)GlcNAc6S", "value": -0.168}, {"measurement": "glycan array binding signal (z-score)", "setting": "GalNAc(a1-3)Gal", "value": -0.016}, {"measurement": "glycan array binding signal (z-score)", "setting": "GalNAc(a1-3)GalNAc", "value": -0.119}, {"measurement": "glycan array binding signal (z-score)", "setting": "[8]", "value": -0.186}, {"measurement": "glycan array binding signal (z-score)", "setting": "[9]", "value": -0.114}, {"measurement": "glycan array binding signal (z-score)", "setting": "GalNAc(b1-3)Gal", "value": -0.179}, {"measurement": "glycan array binding signal (z-score)", "setting": "[10]", "value": -0.21}, {"measurement": "glycan array binding signal (z-score)", "setting": "[11]", "value": -0.179}, {"measurement": "glycan array binding signal (z-score)", "setting": "[12]", "value": -0.178}, {"measurement": "glycan array binding signal (z-score)", "setting": "GalNAc(b1-3)GalNAc", "value": 0.03}, {"measurement": "glycan array binding signal (z-score)", "setting": "GalNAc(b1-3)GlcNAc", "value": -0.161}, {"measurement": "glycan array binding signal (z-score)", "setting": "GalNAc(b1-4)Gal(b1-4)Glc", "value": -0.08}, {"measurement": "glycan array binding signal (z-score)", "setting": "GalNAc(b1-4)GlcNAc", "value": -0.018}, {"measurement": "glycan array binding signal (z-score)", "setting": "[13]", "value": -0.164}, {"measurement": "glycan array binding signal (z-score)", "setting": "[14]", "value": -0.119}, {"measurement": "glycan array binding signal (z-score)", "setting": "[15]", "value": -0.182}, {"measurement": "glycan array binding signal (z-score)", "setting": "GalNAc(b1-4)GlcNAc6S", "value": -0.167}, {"measurement": "glycan array binding signal (z-score)", "setting": "GalNAc(b1-6)GalNAc", "value": -0.153}, {"measurement": "glycan array binding signal (z-score)", "setting": "GalNAc3S(b1-4)GlcNAc", "value": -0.171}]}]}
